Measured values from the BET-seq Pho4 binding data (Le et al. 2018).
The list shows a part of the results. These are noisy estimates, calculated here from bound and input reads.

The sequences below were run against T1, Pho4 (S. cerevisiae) (UniProt P07270) (assay: relative binding free energy (BET-seq); higher = weaker binding). Settings: reference: library average.
T1 sequence: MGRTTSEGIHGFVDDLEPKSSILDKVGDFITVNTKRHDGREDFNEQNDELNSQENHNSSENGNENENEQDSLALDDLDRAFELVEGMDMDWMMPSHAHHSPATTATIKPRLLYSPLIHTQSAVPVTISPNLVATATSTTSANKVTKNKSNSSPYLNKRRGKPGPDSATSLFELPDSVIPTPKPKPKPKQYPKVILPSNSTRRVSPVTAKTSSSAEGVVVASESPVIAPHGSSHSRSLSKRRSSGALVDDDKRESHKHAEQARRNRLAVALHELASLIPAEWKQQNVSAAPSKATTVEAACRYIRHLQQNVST
In the case of TTTTGCACGTGATCTA, the “relative binding free energy” value is reported as -0.09 kcal/mol.
For TGCGGCACGTGGATGT, the “relative binding free energy” value was -0.15 kcal/mol.
In the case of AACGGCACGTGTTTGG, the “relative binding free energy” value is reported as -0.08 kcal/mol.
AGTTACACGTGGTGAG was tested, and the “relative binding free energy” value was 0.17 kcal/mol.
CGAAACACGTGTGTGG was tested, and the “relative binding free energy” value was -0.03 kcal/mol.
GGGTTCACGTGAAAAG was tested, and the “relative binding free energy” value was 0.39 kcal/mol.
ATAGTCACGTGGACGT was tested, and the “relative binding free energy” value was -0.03 kcal/mol.
For TTACTCACGTGGGTGG, the “relative binding free energy” value was 0.07 kcal/mol.
AGTGTCACGTGATGGG was tested, and the “relative binding free energy” value was 0.24 kcal/mol.
In the case of GTCTGCACGTGAAATT, the “relative binding free energy” value is reported as 0.48 kcal/mol.
In the case of TGGTTCACGTGAATTG, the “relative binding free energy” value is reported as 0.46 kcal/mol.
With TAGCTCACGTGAGTTA the “relative binding free energy” value was 0.4 kcal/mol.
In the case of TGACTCACGTGTTGGG, the “relative binding free energy” value is reported as 0.14 kcal/mol.
With TGGCGCACGTGATAGT the “relative binding free energy” value was 0.06 kcal/mol.
GATTCCACGTGGGGGC was tested, and the “relative binding free energy” value was 0.11 kcal/mol.
In the case of GTGGTCACGTGGCGCT, the “relative binding free energy” value is reported as 0.16 kcal/mol.
In the case of CAATACACGTGTAGGG, the “relative binding free energy” value is reported as 0.3 kcal/mol.
In the case of GCGTTCACGTGTTGAT, the “relative binding free energy” value is reported as 0.35 kcal/mol.
With TACTGCACGTGAGTTG the “relative binding free energy” value was 0.23 kcal/mol.
In the case of TGTGGCACGTGATTCG, the “relative binding free energy” value is reported as 0.02 kcal/mol.
For TTGTCCACGTGTTGCG, the “relative binding free energy” value was 0.21 kcal/mol.
With TCTATCACGTGTGTAT the “relative binding free energy” value was 0.13 kcal/mol.
In the case of TGGATCACGTGTCGCG, the “relative binding free energy” value is reported as 0.2 kcal/mol.
In the case of ATAAGCACGTGGAGAA, the “relative binding free energy” value is reported as 0.11 kcal/mol.
With AATTACACGTGAGGGC the “relative binding free energy” value was 0.27 kcal/mol.
With GGGGGCACGTGTTTCC the “relative binding free energy” value was -0.01 kcal/mol.
With CTTGGCACGTGGGAGT the “relative binding free energy” value was -0.21 kcal/mol.
With TGTTCCACGTGGGATT the “relative binding free energy” value was -0.03 kcal/mol.
TGGAGCACGTGGAAGT was tested, and the “relative binding free energy” value was -0.04 kcal/mol.
For TGAAGCACGTGGGGGC, the “relative binding free energy” value was -0.33 kcal/mol.
For GTGGTCACGTGAGTGG, the “relative binding free energy” value was 0.35 kcal/mol.
In the case of TTTTTCACGTGGTTGG, the “relative binding free energy” value is reported as 0.25 kcal/mol.
For ATGGGCACGTGAGGCG, the “relative binding free energy” value was 0.1 kcal/mol.
ATGTCCACGTGGGGGT was tested, and the “relative binding free energy” value was -0.2 kcal/mol.
In the case of TTTGTCACGTGGATCG, the “relative binding free energy” value is reported as 0.09 kcal/mol.
For TATCTCACGTGTTGGA, the “relative binding free energy” value was 0.19 kcal/mol.
For CGTGGCACGTGTGTAC, the “relative binding free energy” value was -0.06 kcal/mol.
With TCGTACACGTGGTCGT the “relative binding free energy” value was 0.04 kcal/mol.
For GTAGGCACGTGGATAT, the “relative binding free energy” value was -0.14 kcal/mol.
For CTTGCCACGTGGGGAT, the “relative binding free energy” value was -0.18 kcal/mol.
With GAGGGCACGTGGGGGT the “relative binding free energy” value was -0.12 kcal/mol.
TGGGGCACGTGCTGGT was tested, and the “relative binding free energy” value was -0.18 kcal/mol.
For GGTTGCACGTGCGGTA, the “relative binding free energy” value was -0.11 kcal/mol.
GGCTTCACGTGTGGCG was tested, and the “relative binding free energy” value was 0.3 kcal/mol.
With CGTTCCACGTGGGGGC the “relative binding free energy” value was -0.02 kcal/mol.
For TATCGCACGTGATTTT, the “relative binding free energy” value was -0.02 kcal/mol.
In the case of TCAGTCACGTGTGTGT, the “relative binding free energy” value is reported as 0.09 kcal/mol.
GGGTCCACGTGGTAAT was tested, and the “relative binding free energy” value was 0.11 kcal/mol.
TAAGTCACGTGTTGAT was tested, and the “relative binding free energy” value was 0.11 kcal/mol.
In the case of CTGGTCACGTGTGGGT, the “relative binding free energy” value is reported as 0.18 kcal/mol.
For ATGGACACGTGATGTG, the “relative binding free energy” value was 0.17 kcal/mol.
In the case of GTTTGCACGTGCGTTA, the “relative binding free energy” value is reported as 0.02 kcal/mol.
With TTGGTCACGTGAGTCT the “relative binding free energy” value was 0.31 kcal/mol.
For ATAAGCACGTGGTGCT, the “relative binding free energy” value was -0.24 kcal/mol.
For GGTAGCACGTGTATAG, the “relative binding free energy” value was 0.04 kcal/mol.
For GATAGCACGTGTTGGG, the “relative binding free energy” value was -0.04 kcal/mol.
With GTAGTCACGTGAGCTG the “relative binding free energy” value was 0.33 kcal/mol.
For GTAGTCACGTGGTCGT, the “relative binding free energy” value was 0.03 kcal/mol.
For ATTAGCACGTGGAGAG, the “relative binding free energy” value was -0.09 kcal/mol.
TAGGGCACGTGGCTGT was tested, and the “relative binding free energy” value was -0.05 kcal/mol.
For GCGTGCACGTGGGCGG, the “relative binding free energy” value was -0.11 kcal/mol.
With GTATTCACGTGAGTTA the “relative binding free energy” value was 0.42 kcal/mol.
TCTTGCACGTGTATTT was tested, and the “relative binding free energy” value was 0.04 kcal/mol.
GGGGACACGTGACGAG was tested, and the “relative binding free energy” value was 0.21 kcal/mol.
For GGAGGCACGTGTGTAA, the “relative binding free energy” value was -0.09 kcal/mol.
GGTTTCACGTGTGGAT was tested, and the “relative binding free energy” value was 0.3 kcal/mol.
In the case of ATCATCACGTGGAGGT, the “relative binding free energy” value is reported as 0.12 kcal/mol.
For TCTGACACGTGTTTGG, the “relative binding free energy” value was 0.15 kcal/mol.
In the case of TGGGGCACGTGTTTGG, the “relative binding free energy” value is reported as -0.09 kcal/mol.
For TGTACCACGTGATGGT, the “relative binding free energy” value was 0.01 kcal/mol.
With AGATGCACGTGTTCTT the “relative binding free energy” value was -0.14 kcal/mol.
With CTACACACGTGTGGGT the “relative binding free energy” value was 0.1 kcal/mol.
TGCATCACGTGGGTTA was tested, and the “relative binding free energy” value was 0.04 kcal/mol.
With TAGCTCACGTGGGGTA the “relative binding free energy” value was -0.07 kcal/mol.
For AGATCCACGTGTTTTT, the “relative binding free energy” value was 0.09 kcal/mol.
In the case of ATTAGCACGTGTCTTT, the “relative binding free energy” value is reported as 0.08 kcal/mol.
With GTGTCCACGTGGGCAG the “relative binding free energy” value was -0.07 kcal/mol.
For TTCTTCACGTGGGCGT, the “relative binding free energy” value was 0.07 kcal/mol.
With TTTTCCACGTGAGTTG the “relative binding free energy” value was 0.28 kcal/mol.
For TGAGTCACGTGTTGCA, the “relative binding free energy” value was -0.01 kcal/mol.
In the case of TAGAACACGTGTTATT, the “relative binding free energy” value is reported as 0.01 kcal/mol.
TTGGTCACGTGATGCT was tested, and the “relative binding free energy” value was 0.18 kcal/mol.
For TTGGTCACGTGTCATA, the “relative binding free energy” value was 0.06 kcal/mol.
With GCGGTCACGTGCTGGT the “relative binding free energy” value was -0.06 kcal/mol.
ATGGTCACGTGTGGAT was tested, and the “relative binding free energy” value was 0.13 kcal/mol.
In the case of ATAGGCACGTGTCAGT, the “relative binding free energy” value is reported as -0.01 kcal/mol.
For GAGGTCACGTGTATAA, the “relative binding free energy” value was 0.18 kcal/mol.
With GGGTGCACGTGTTAAT the “relative binding free energy” value was 0.08 kcal/mol.
With ATAGACACGTGATGTT the “relative binding free energy” value was 0.03 kcal/mol.
In the case of TTGAACACGTGTGGGT, the “relative binding free energy” value is reported as 0.13 kcal/mol.
For TTTAACACGTGTAGAG, the “relative binding free energy” value was 0.17 kcal/mol.
For AATGGCACGTGGGACG, the “relative binding free energy” value was -0.16 kcal/mol.
In the case of GGTTCCACGTGCGGGG, the “relative binding free energy” value is reported as 0.05 kcal/mol.
AGGGGCACGTGGGATG was tested, and the “relative binding free energy” value was -0.17 kcal/mol.
For CTGTGCACGTGAGATG, the “relative binding free energy” value was 0.09 kcal/mol.
With GTTGTCACGTGGGTAC the “relative binding free energy” value was 0.01 kcal/mol.
For TAAGTCACGTGGAATG, the “relative binding free energy” value was 0.15 kcal/mol.
With GTTTCCACGTGTTTGC the “relative binding free energy” value was 0.17 kcal/mol.
With TGTAGCACGTGTAGAG the “relative binding free energy” value was -0.07 kcal/mol.
TTCTTCACGTGAATAT was tested, and the “relative binding free energy” value was 0.53 kcal/mol.
In the case of CATGACACGTGGGGGA, the “relative binding free energy” value is reported as -0.13 kcal/mol.
In the case of GTTATCACGTGTGAAG, the “relative binding free energy” value is reported as 0.28 kcal/mol.
For TACTTCACGTGGCGTT, the “relative binding free energy” value was 0.11 kcal/mol.
In the case of ATGTTCACGTGCTGGG, the “relative binding free energy” value is reported as 0.18 kcal/mol.
For AGTATCACGTGTCTTT, the “relative binding free energy” value was 0.24 kcal/mol.
For GTCGTCACGTGACGGG, the “relative binding free energy” value was 0.24 kcal/mol.
With TTATTCACGTGACTTT the “relative binding free energy” value was 0.23 kcal/mol.
In the case of CTTAACACGTGGTGAG, the “relative binding free energy” value is reported as 0.01 kcal/mol.
For TGGAGCACGTGTAACG, the “relative binding free energy” value was 0.03 kcal/mol.
GTATCCACGTGATAGG was tested, and the “relative binding free energy” value was 0.23 kcal/mol.
TGTTACACGTGTTGGA was tested, and the “relative binding free energy” value was 0.12 kcal/mol.
CTTGCCACGTGGTAGG was tested, and the “relative binding free energy” value was -0.17 kcal/mol.
In the case of GGAGTCACGTGTGAGG, the “relative binding free energy” value is reported as 0.2 kcal/mol.
For ATGAGCACGTGAGGGG, the “relative binding free energy” value was 0.12 kcal/mol.
GGTAACACGTGGCTGA was tested, and the “relative binding free energy” value was 0.02 kcal/mol.
